# Results are given in words; binding and its absence hold for the method and conditions named. Some results given as binding are weak or reduced against the parent protein; the word gives no strength.
# The chains behind the UniProt entries cited, without tags or fusion partners. Where a name states a change or a piece, a line headed by the entry shows the natural chain unless it says otherwise. Residues count along the entry.
# UniProt P42703, residues 44-828: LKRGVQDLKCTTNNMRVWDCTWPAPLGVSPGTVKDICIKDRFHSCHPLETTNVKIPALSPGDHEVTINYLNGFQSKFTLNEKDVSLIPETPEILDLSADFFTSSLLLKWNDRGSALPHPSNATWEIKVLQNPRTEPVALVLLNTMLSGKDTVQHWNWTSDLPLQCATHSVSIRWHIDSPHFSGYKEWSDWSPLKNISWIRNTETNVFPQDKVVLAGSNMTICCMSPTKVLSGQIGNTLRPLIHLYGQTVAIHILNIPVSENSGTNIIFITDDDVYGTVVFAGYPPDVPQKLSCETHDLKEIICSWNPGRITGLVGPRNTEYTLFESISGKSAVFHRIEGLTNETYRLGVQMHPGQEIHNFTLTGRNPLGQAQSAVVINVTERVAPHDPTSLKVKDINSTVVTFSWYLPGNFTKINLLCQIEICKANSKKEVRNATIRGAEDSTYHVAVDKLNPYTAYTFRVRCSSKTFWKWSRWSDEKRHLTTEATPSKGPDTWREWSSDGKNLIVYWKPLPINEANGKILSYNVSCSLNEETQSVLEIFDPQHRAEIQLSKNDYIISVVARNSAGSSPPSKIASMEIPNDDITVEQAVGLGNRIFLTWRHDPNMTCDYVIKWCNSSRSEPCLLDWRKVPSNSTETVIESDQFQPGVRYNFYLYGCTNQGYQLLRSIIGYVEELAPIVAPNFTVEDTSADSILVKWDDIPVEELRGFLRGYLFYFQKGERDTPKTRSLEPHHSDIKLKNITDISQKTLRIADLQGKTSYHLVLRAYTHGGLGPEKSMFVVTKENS
# UniProt P42702, residues 45-1097: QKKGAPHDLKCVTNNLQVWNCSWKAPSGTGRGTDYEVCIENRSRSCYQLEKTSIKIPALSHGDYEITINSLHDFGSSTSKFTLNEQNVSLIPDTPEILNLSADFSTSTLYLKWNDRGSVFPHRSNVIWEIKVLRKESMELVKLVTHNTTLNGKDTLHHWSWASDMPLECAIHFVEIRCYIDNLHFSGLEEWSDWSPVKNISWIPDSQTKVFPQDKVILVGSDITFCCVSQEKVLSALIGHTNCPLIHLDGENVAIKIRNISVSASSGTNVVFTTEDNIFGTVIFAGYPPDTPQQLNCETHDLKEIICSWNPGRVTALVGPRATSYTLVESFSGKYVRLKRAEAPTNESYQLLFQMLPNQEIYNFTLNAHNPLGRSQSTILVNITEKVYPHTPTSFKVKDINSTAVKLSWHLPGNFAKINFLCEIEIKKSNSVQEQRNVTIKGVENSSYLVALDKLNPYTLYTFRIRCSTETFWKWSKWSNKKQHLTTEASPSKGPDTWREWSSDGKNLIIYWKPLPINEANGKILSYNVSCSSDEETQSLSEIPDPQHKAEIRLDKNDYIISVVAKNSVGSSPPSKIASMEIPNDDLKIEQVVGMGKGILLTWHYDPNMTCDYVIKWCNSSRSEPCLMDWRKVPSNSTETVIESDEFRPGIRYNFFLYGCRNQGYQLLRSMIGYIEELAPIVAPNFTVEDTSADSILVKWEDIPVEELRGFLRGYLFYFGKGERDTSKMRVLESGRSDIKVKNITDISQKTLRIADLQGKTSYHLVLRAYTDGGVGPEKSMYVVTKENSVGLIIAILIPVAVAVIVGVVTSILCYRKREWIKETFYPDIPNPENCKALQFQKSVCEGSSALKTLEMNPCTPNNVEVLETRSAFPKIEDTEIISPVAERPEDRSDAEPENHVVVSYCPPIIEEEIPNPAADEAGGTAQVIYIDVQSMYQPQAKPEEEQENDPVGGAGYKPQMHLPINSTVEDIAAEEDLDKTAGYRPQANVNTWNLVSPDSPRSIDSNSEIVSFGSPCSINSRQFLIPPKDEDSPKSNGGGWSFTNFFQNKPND
# UniProt P40189: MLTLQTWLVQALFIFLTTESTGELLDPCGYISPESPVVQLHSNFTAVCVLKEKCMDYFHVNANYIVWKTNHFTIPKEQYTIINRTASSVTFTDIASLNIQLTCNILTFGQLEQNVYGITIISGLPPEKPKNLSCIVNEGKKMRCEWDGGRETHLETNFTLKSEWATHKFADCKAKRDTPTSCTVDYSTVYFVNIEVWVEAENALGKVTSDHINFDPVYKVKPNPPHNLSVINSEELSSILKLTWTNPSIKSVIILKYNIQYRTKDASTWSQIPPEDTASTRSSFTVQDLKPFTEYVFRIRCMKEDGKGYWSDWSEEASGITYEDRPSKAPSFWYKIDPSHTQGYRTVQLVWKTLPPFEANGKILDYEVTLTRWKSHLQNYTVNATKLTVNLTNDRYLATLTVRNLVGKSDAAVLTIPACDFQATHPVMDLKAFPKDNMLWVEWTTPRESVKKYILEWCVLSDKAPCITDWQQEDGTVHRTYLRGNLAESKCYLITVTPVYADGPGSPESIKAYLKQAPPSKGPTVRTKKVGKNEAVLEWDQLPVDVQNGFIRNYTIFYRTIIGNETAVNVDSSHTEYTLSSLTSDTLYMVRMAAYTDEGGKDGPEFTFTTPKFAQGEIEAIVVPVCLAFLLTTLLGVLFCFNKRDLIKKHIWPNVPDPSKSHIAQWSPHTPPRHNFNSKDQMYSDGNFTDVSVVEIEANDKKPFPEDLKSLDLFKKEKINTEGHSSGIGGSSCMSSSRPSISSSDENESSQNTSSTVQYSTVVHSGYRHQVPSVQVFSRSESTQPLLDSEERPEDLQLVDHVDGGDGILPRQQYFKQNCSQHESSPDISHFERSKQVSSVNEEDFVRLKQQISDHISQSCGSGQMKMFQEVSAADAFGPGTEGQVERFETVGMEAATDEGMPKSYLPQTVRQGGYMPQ
# B1: PR301127 (antibody, human IgG1, kappa, V domains shown)
# VH: EVQLLQSGGGLVQPGGSLRLSCAASGFTFSNYAMTWVRQAPGKGLEWVSTISGSGAFTYYADAVKGRFTISRVNSKNSLDLQMNSLRAEDTAVYYCAKGGILTGFDNWGQGTLVTVSS
# VL: DIQMTQSPSTLSASVGDRVTITCRASQSISSWLAWYQQKPGKAPKLLIYKASSLESGVPSRFSGSGSGTEFSFTISSLQPDDFATYYCQQYKSFSPGGLTFGGGTKVEIKR
# B2: PR301172 (antibody, human IgG1, kappa, V domains shown)
# VH: EVQLLESGGGLVQPGGSLRLSCATSGFTFSNYAMTWVRQAPGKGLEWVVISGSGFLTYYADAVKGRFTISRVNSKNSLYLQMNSLRAEDTAVYYCTKGGILTGFDYWGQGTLVTVSS
# VL: KIVMTQSPATLSVSPGERATLSCRASQNLNSNLAWYQQTPGQAPRLLIYGASTRAPGIPARFSGSGSGTEFTLTISSLQSEDFVVYFCQQYNNWPRTFGQGTKVEIKR
# B3: PR301211 (antibody, human IgG1, kappa, V domains shown)
# VH: QVQLVESGGGVVQPGRSLRLSCAASGFTFSSYGMHWVRQAPGKGLEWVAVIWFDGSLKYYADSVKGRFAISRDNSKNTLYLQMNSLRAEDTAIFYCARGQLVQDLWGRGTLVTVSS
# VL: DIQMTQSPSTLSASVGDRVTITCRASQSISSWLAWYQQKPGKAPNLLMYKASNLESGVPSRFSGSGSGTEFTLTITSLQPDDFASYYCQQYKSNPLTFGGGTKVEIKR
# B4: PR301177 (antibody, human IgG1, kappa, V domains shown)
# VH: QVQLVESGGGVVQPGRSLRLSCVASGFTFSSYGMNWVRQAPGKGLDWVTVIWFDGSNKYYADSVKGRFTISRDNSKNTLYLQMNSLRAEDTAMYYCARGERTLDLWGQGTLVTVSS
# VL: DIQMTQSPSTLSASVGDRVTITCRASQSISSWLAWYQQKPGKAPKLLIYKASSLESGVPSRFSGSGSGTEFSFTISSLQPDDFATYYCQQYKSFSPGGLTFGGGTKVEIKR
# B5: PR301195 (antibody, human IgG1, kappa, V domains shown)
# VH: QVQLVESGGGVVQPGRSLRLSCAASGFTFSSYGMNWVRQAPGKGLEWVAVIWFDGSIKYYADSVKGRFTISRDNSKNTLYLQMNSLRAEDTAIYYCARGQLVQDFWGRGTLVTVSS
# VL: DIQMTQSPSTLSASVGDRVTITCRASQSISSWLAWYQQKPGKAPNLLMYKASNLESGVPSRFSGSGSGTEFTLTITSLQPDDFASYYCQQYKSNPLTFGGGTKVEIKR
# B6: PR301196 (antibody, human IgG1, kappa, V domains shown)
# VH: QVQLVESGGGVVQPGRSLRLSCAASGFTFSSYGMNWVRQAPGKGLEWVAVIWFDGSIKYYADSVKGRFTISRDNSKNTLYLQMNSLRAEDTAIYYCARGQLVQDFWGRGTLVTVSS
# VL: DIQMTQSPSTLSASVGDRVTITCRASQSISSWLAWYQQKPGKAPNLLMYKASNLENGVSSRFSGSGSGTEFTLTITSLQPDDFATYYCQQYKSNPLTFGGGTKVEIKR
# B7: PR301215 (antibody, human IgG1, kappa, V domains shown)
# VH: QVQLVESGGGVVQPGRSLRLSCAASGFTFSSYGMHWVRQAPGKGLEWVAVIWFDGSIKYYADSVKGRFTISRDNSKNTLYLQMNSLRAEDTAIYYCARGQLVQDFWGRGTLVTVSS
# VL: DIQMTQSPSTLSASVGDRVTITCRASQSISSWLAWYQQKPGKAPNLLMYKASNLESGVPSRFSGSGSGTEFTLTITSLQPDDFASYYCQQYKSNPLTFGGGTKVEIKR
# B8: PR301218 (antibody, human IgG1, kappa, V domains shown)
# VH: QVQLVESGGGVVQPGRSLRLSCAASGFTFSSYGMHWVRQAPGKGLEWVAVIWFDGSVKYYADSVKGRFTISRDNSKNTLYLQMNSLRAEDTAIYYCARGQLVQDFWGRGTLVTVSS
# VL: DIQMTQSPSTLSASVGDRVTITCRASQSISSWLAWYQQKPGKAPNLLMYKASNLESGVPSRFSGSGSGTEFTLTITSLQPDDFASYYCQQYKSNPLTFGGGTKVEIKR
# Key:
# [1] = molecular target: mouse LIFR-ECD protein (mouse) (UniProt P42703); test: ELISA
# [2] = molecular target: T1, human LIFR/gp130 heterodimer expressed on the surface of 293T cells (human) (UniProt P42702+P40189); test: flow cytometry on HEK293T-huLIFR/gp130 cells, FITC goat anti-human secondary antibody, FITC MFI
# [3] = molecular target: mouse LIFR-ECD protein (mouse) (UniProt P42703); test: ELISA on plate-coated mouse LIFR-ECD (1 ug/mL), anti-human IgG Fc-HRP, OD450nm against mAb concentration in nM
# [4] = molecular target: T1, human LIFR/gp130 heterodimer expressed on the surface of 293T cells (human); test: flow cytometry blocking assay: binding of huLIF-biotin (at its EC80) to HEK293T-huLIFR/gp130 cells, APC-streptavidin, APC MFI
# [5] = molecular target: human LIFR expressed on the surface of 293T cells (human) (UniProt P42702); test: flow cytometry on cells
# [6] = molecular target: T1, human LIFR/gp130 heterodimer expressed on the surface of 293T cells (human); test: flow cytometry on cells
# [7] = molecular target: mouse LIFR-ECD protein (mouse) (UniProt P42703); test: ELISA, plate coated with 1 ug/mL mouse LIFR-ECD; same ELISA on coated mouse LIFR-ECD as M41; no different condition
# [8] = molecular target: human LIFR expressed on the surface of 293T cells (human) (UniProt P42702); test: flow cytometry on HEK293T-huLIFR cells, FITC goat anti-human secondary antibody, FITC MFI against mAb concentration in nM
# [9] = molecular target: T1, human LIFR/gp130 heterodimer expressed on the surface of 293T cells (human); test: flow cytometry on HEK293T-huLIFR/gp130 cells, FITC goat anti-human secondary antibody, FITC MFI against mAb concentration in nM
# [10] = molecular target: T1, human LIFR/gp130 heterodimer expressed on the surface of 293T cells (human); test: flow cytometry blocking assay: binding of huLIF-biotin (at its EC80) to HEK293T-huLIFR/gp130 cells, APC-streptavidin, APC MFI against mAb concentration in nM
binder,measurement,setting,value
B1,binding,[1],binds
same,binding,[2],no binding (tested: 100 nM)
same,binding,[3],binds
same,binding,[4],no binding (tested: 100 nM)
B2,binding,[1],binds
same,binding,[3],binds
B3,binding,[5],binds
same,binding,[6],binds
same,binding,[7],no binding (tested: up to 100 nM)
same,binding,[8],binds
same,binding,[9],binds
same,binding,[10],binds
B4,binding,[10],binds
B5,binding,[10],binds
B6,binding,[10],binds
B7,binding,[10],binds
B8,binding,[10],binds
